Laboratory results published in the supplement of paper PMC11417369.
The other results are listed elsewhere or left out.

System: PfAP2-HC AP2 domain (GST-tagged)
Assay: gcPBM binding intensity (ln(normalized median fluorescence intensity)); higher = stronger DNA binding
Outline: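 After 1 h on an Agilent 4 × 180k array of primer-extended double-stranded 36-bp intergenic genomic probes and negative controls, bound GST-tagged P. falciparum DNA-binding domains were detected with Alexa488 anti-GST antibody and scanned at 488 nm. The domains had been expressed in E. coli, and binding took place in 1× PBS with 1% milk, 0.2 mg/ml BSA, 0.5% salmon testes DNA and 0.03% Triton X-100. Binding intensity is the highest Masliner-normalised natural-log median intensity across replicate spots of either probe orientation.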

Point of comparison: “TATATTCCCATATAACGTACATATGAGACACCAACT [XGTACX_site8099]”, “gcPBM binding intensity (ln)” value 9.53. Against it:
- TTTAAATATATTAATACACACACGATATGTACAAAA [CACACA_site539] — higher, 9.96
- GAATAAATTGTATTGTGTACATATAAAAGCATCTAA [XGTACX_site8271] — higher, 9.7
- AAGAAGAAACAAAACACACACAGTCTTCTTTTCTAT [CACACA_site3088] — higher, 10.8
- TACAGAATTGTATATAGTACATAAAACAATATATAT [XGTACX_site7275] — higher, 9.69
- GTATATGAATAATATTTTATGGTAATTTTTTTTTTT [XGTACX_negctrl_site512] — lower, 9.4
- GGTGGTAAAAAACCTGCATGTCGAAATATTAAATAC [TGCATGCA_site33] — higher, 9.64
- AAAAAAAAAAAAAAGAGTACTCATATAAAAATATAA [XGTACX_site6551] — lower, 9.52
- TTTTTATAAAAAATTTACACTATATGACAGAAGTAA [XGTACX_negctrl_site481] — lower, 9.31
- AATGAAAAGTAAAATACACACACATAATATAATTTA [CACACA_site8608] — higher, 10.6
- TGTGTAAAAATCATGGGTACACATTTTGATACCAAT [XGTACX_site1779] — higher, 9.81
- AAACTTGACGAACACACACACACATATATAAAAAAA [CACACA_site6494] — higher, 11.5
- ATACTATTTAAATGGGTGCTAAAAATAACAAAAATT — higher, 9.57
- TCTTTTTATGTTCTAGAGCATTTTATTATTTAACAT [CACACA_negctrl_site1699] — higher, 9.81
- ATATTTTTATATGAGGTGCATATAATGACAATTAAG — higher, 9.64
- GAAGTTAGTGTTGACTGTACATATATATGTATATAT [XGTACX_site7243] — higher, 9.78
- TTTTCTTTTTGTTCGTGTACACACATGAAATTTATA [XGTACX_site3301] — higher, 9.88
- AAACGTACATAATACACACACATGTATACATATAAA [CACACA_site2048] — higher, 10.2
- ATTTCTTTTTTTTTTTTTTTTAATGTAAAACATTTT [CACACA_negctrl_site1462] — higher, 9.58
- AATCGAAATCGTGCACGGACACATGCAGTAGCCGAG [XGTACX_site6001] — higher, 9.64
- TATACCTATAAATACACACACATATATAAATAAATA [CACACA_site6730] — higher, 10.3
- ATATATATACACAATAGTACGTGTAATATTATTATT [XGTACX_site2151] — higher, 9.73
- TTTCCGGTAATATGGAAATATATGTGGGTTTTTTTT [CACACA_negctrl_site1536] — higher, 9.62
- ACTATTTTAAAAATATGTACATACGTTGTAATTTAA [XGTACX_site7999] — lower, 9.48
- CGAAGGATAAACATACGTACATATATGTGTATAATA [XGTACX_site779] — higher, 9.9
- TATATTTATAAATGAACACACACGCAATTTGAATCG [CACACA_site3370] — higher, 10.2
- CTGTATTTATTTTTCTGTACCAAATCACCCCTTGTA [XGTACX_site395] — higher, 9.62
- TACGTTTTATGACACACACACAAAAAAAAAAAAAAA [CACACA_site7764] — higher, 9.86
- GATGTATAAAATAATACATGCATGTCCTACATATAT [TGCATGCA_site155] — higher, 10
- TTTCTTTTTCGATATACACACTGTATGTGTCTAAAA [CACACA_site6054] — higher, 9.95
- CATCACCTTTTTAAATGTACGCATAATACCAAAAAA [XGTACX_site1587] — higher, 9.58
- GTAGGTTACAAAATGTGAGAGAAGCAAATATAGAAA [CACACA_negctrl_site1819] — higher, 9.74
- TTTTGTTTTTAGTTTATACACACCATATTAATATAA [CACACA_site3102] — higher, 9.75
- TTGTATTAAAATCAAGTGCATATAATTTAAGTTCAT [GTGCAC_site9495] — lower, 9.5
- CTTTGGTTATAACACACATGCACACGTAAATAAATA [TGCATGCA_site976] — higher, 10.1
- TATCATATATTATAGCGTACTTATTTATTTATTTAT [XGTACX_site1676] — higher, 9.9
- TATAATAGTTCATAGGTGCAATATAATAAATTTATA [GTGCAC_site9573] — higher, 9.64
- AAAAAAAAAAAAAAAAGTACATGAAAAAAAGAAGAA [XGTACX_site8384] — higher, 9.65
- ATATAAGTACCTATAACACACATATATTATAAGTAT [CACACA_site7281] — higher, 9.9
- TAGAATAAATTAATTACACACGGAATTATATATATA [CACACA_site1616] — higher, 9.66
- AATGGTTATAATATATGTACATATAAATATACTGAA [XGTACX_site8533] — higher, 9.69
- TATAGCAAAATATTCACACAAACTATTAATAAAAGT [CACACA_site5795] — higher, 9.85
- TTTTTTTTTTAGTATGAACACACATATATATTATAA [CACACA_site8957] — higher, 9.68
- ATAAAACTTATTTAACGTACATATTTTATATACCTT [XGTACX_site5353] — higher, 9.74
- TATAAAATAAATAACAAAAAAAATAAAATAAAAATA [TGCATGCA_negctrl_site297] — higher, 9.66
- AAAAAATACATCAAAAGAAACATATATATATATATA [GTGCAC_negctrl_site719] — higher, 9.59
- GATCATTCTAAATATAAACACACATAAATATATACA [CACACA_site9108] — higher, 9.71
- ATAATATAATAATATTGTACATGGTCAAATATGAAA [XGTACX_site8390] — higher, 9.77
- GTTTATATATTATAAAGTACATATGAATTTAATAAT [XGTACX_site3601] — lower, 9.46
- AAAAAATAAATAAACATAAATAAATAAATAAATATA [XGTACX_negctrl_site340] — higher, 9.73
- ATTTCAAAATATAGCTGTACAAAAAATGTAGATATA [XGTACX_site5843] — higher, 9.8
- CTTAAAAAAATATATTGTACATATATATATACAACT [XGTACX_site1281] — lower, 9.48
- TTAAAATGATTGTTACTTTTTTTTCCGTTTTCTTAA [CACACA_negctrl_site1195] — lower, 9.49
- ATAAATAGTATTATATGTACACATAATATTTATAAA [XGTACX_site4751] — higher, 9.82
- AAAAATGGTGTTAACACACACATATATATATATATA [CACACA_site571] — higher, 10.2
- TTTCTCTCTTATAAAATACACACGAACAATCATATT [CACACA_site509] — higher, 9.73
